# Some of the results follow.
# T1: UNK ZnF1-3 (human, UniProt Q9C0B0 31-174)
# T1 sequence: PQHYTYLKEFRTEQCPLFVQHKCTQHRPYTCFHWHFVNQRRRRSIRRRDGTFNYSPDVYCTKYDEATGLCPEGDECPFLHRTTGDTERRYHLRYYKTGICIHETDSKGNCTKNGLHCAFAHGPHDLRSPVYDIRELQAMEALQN
# B1: chr2:202488911:202488912:-_ENSG00000155755_ENST00000286196|hu_mus|hu_hu_hu_mus_False|8_88 (ssRNA)
# RNA: GGGAGUUCUACAGUCCGACGAUCAUUGAAACAUUUUUCAUAAUCUCAGAGAUGUUUUCAGCAUUAUGUAACAAAAGCUCAAUUGUAAAUACAUGUAUCUUAUAAAAAUACACUUAAAAACACGAGUAAAAAUGGGAGGCGCCACAACAGAGGAUUGAGCAUCA
# B2: 167813544_167813664_159_5pUTR_ENSG00000173905_ENST00000470487|human|control|control (ssRNA)
# RNA: GGGAGUUCUACAGUCCGACGAUCGACUCCGGGCCGCGCCCCCGUGCGGCCUGCCCAAUGGGUGGAAGGGUGGGGGCCAGCUGUCUCGGCUGGUUUUGGGGACGGCACAGCGGUGUCACUGACGGGUCGGCUGGUGCCUCUGCCCAACAGAGGAUUGAGCAUCA
# B3: 120591706_120593086_3661_CDS_ENSG00000089154_ENST00000300648|human|control|control (ssRNA)
# RNA: GGGAGUUCUACAGUCCGACGAUCGCCACACCUGGCUUCCCACUGAUCUGGAGGAGAUUCUGAAAUAACUCGUCCCAAAGCAUCCAGCACUGGGGGCGGCCGGUAGAGCUUUUCCUGGUAAAUCUCCAUGAGCCUGCCCAUAACCAACAGAGGAUUGAGCAUCA
# B4: 92955481_92955601_2545_3pUTR_ENSG00000113391_ENST00000395965|human|control|control (ssRNA)
# RNA: GGGAGUUCUACAGUCCGACGAUCUUGUUCAAACUGUAGGGCUAAACCCUACAGAGGAAGCGGAGUGCUAAAAAUUAUACCAUUGGACUGAGAGAAGAAAUUCUUUCACACCAAGUCCUUCUCUUCUUGUUAAAGCAGAAAACUCAACAGAGGAUUGAGCAUCA
# B5: chr16:84831616:84831617:-_ENSMUSG00000022890_ENSMUST00000023608|mus_mus|FALSE|FALSE (ssRNA)
# RNA: GGGAGUUCUACAGUCCGACGAUCUCCUCCAGAUGCCUGUCGCUUUGAUUUGUACUCUCUUAUCUUGUCCACGAAGAGUUUCUGUACAGGAUCAAGUUCCUUAUUAAAGGCCACAGCUGUAACACCAAUGUUCCUCUUCAAAUGCAACAGAGGAUUGAGCAUCA
# B6: chr4:57314706:57314707:+_ENSG00000128050_ENST00000264221|hu_mus|hu_hu_hu_mus_True|78_98 (ssRNA)
# RNA: GGGAGUUCUACAGUCCGACGAUCCAGAAUUUCAAAAAUAGCCUGUGUGGCAUGACUCAUGAUAUCCACUUCAGUCUGCCCUAUAACAAGGCCAGCAAAACAGAAUUUUGCAGCAAUGAGUUGCUCCUCAGACCACUGUGGAUCCAACAGAGGAUUGAGCAUCA
# B7: 20174337_20175353_674_CDS_ENSG00000118965_ENST00000281405|human|control|control (ssRNA)
# RNA: GGGAGUUCUACAGUCCGACGAUCUCCAGCAAUGCUGAUAGCUCCAGUGACAUUCACCAAACAACUCAGUUUCAUUUUUAUCAUAAAAUUUCCUUGAUUAUCGUAAAUGUGUAUUUCCCCAUUUGCCAUUCCAAAAAGUAAGACCAACAGAGGAUUGAGCAUCA
# B8: chr6:82862619:82862620:-_ENSMUSG00000000627_ENSMUST00000000641|mus_hu|FALSE|FALSE (ssRNA)
# RNA: GGGAGUUCUACAGUCCGACGAUCUAUCUUUAUACUGCUCGUAUAUCCUAUGACUGUUCCCCUUCUGUUGUUCCCUAAUCAUUAGAAUGUUGUUGAUUUUUAAUGGGAGCCAAGGAAAUGGGGUACAGCCUACACUCCAGCCAGCAACAGAGGAUUGAGCAUCA
# B9: chr10:22606824:22606825:+_ENSG00000148444_ENST00000456711|hu_mus|FALSE|FALSE (ssRNA)
# RNA: GGGAGUUCUACAGUCCGACGAUCGCAAGUUGCAGCUGCUGCAUGACAAUGCUUUAAAACCACUGGGUCGAUCUGUUUCAAGUAUGGGUGAUCUAGCGCGGCCUCGUCCGCCCGGGCGUCCAGCAGGCUCUGGAAAGCCGCCCGCAACAGAGGAUUGAGCAUCA
# B10: chr8:98253062:98253063:-_ENSMUSG00000036550_ENSMUST00000098473|mus_mus|motif|central (ssRNA)
# RNA: GGGAGUUCUACAGUCCGACGAUCGGUUUCCAACACAUGCUCGGGUGCAUUGAGCUCCAACAGCAGCAUGAUAAAAAUCCGGUGGUACGGAAGUUGCUGAAAUUCACUCUGCCGAACAUCAUGAUCCUGUAGGAGAACUCCCACCAACAGAGGAUUGAGCAUCA
# B11: chr4:140556289:140556290:+_ENSMUSG00000036622_ENSMUST00000037055|mus_mus|mus_mus_mus_hu_False|48_88 (ssRNA)
# RNA: GGGAGUUCUACAGUCCGACGAUCGAUGGAGCUCACCAGGCCCCCUUUGGCUGUGCAGAACCCUGUGCGGGUCACCACUGCCAGGACACGGGGUCCCACAUAGGCCCGGGCCUGCAAGAUGAGGGUCCCGCAGAAGAGUGUGUGCAACAGAGGAUUGAGCAUCA
# B12: 127511639_127515221_873_CDS_ENSMUSG00000074238_ENSMUST00000051737|mouse|control|control (ssRNA)
# RNA: GGGAGUUCUACAGUCCGACGAUCGCGCUCCCUCAUGGGCAGCAUCCUGUUCAUUCCUUCUUCAUCUUCCCACUCUAGGUCUAAGGAGGUGCUGUCGUCAUUUCCACUCGUUGAUUUGGUUUUGGUCAUCAGGUCACAGCUGCUCAACAGAGGAUUGAGCAUCA
# B13: chr8:117878989:117878990:-_ENSG00000164754_ENST00000297338|hu_hu|hu_hu_hu_mus_True|48_108 (ssRNA)
# RNA: GGGAGUUCUACAGUCCGACGAUCCCAGAGGCCCUCUUUUACUGAGGACAAAAUGUGCGUAGAACAUUUUUCUUAUUUGCUAUGAAAACAGAAGAAACCUGGAUCUCGGCGGGGAGCCGGGAGGGGUGGGUGGCCCGGGGAGGGCAACAGAGGAUUGAGCAUCA
# B14: chr1:39494564:39494565:+_ENSG00000168653_ENST00000372967|hu_hu|hu_hu_hu_mus_True|68_68 (ssRNA)
# RNA: GGGAGUUCUACAGUCCGACGAUCAUGCAUUCGCCUCAUCGUUUUGUACCGAAGCAAGCACUCUUCGAAAUCAUCAUACUCUAUCUUGCACUCCUUUUUCGCCCGGGUCCCACCGAUCCCGUGUGCACACUCUAUCCACUCUUUCAACAGAGGAUUGAGCAUCA
# Target: T1, UNK ZnF1-3
# Assay: nsRBNS (natural sequence RNA bind-n-seq); RBNS binding buffer (assumed for nsRBNS): 25 mM Tris pH 7.5, 150 mM KCl, 3 mM MgCl2, 0.01% Triton X-100, 500 ug/ml BSA, 20 U/ml SUPERase-In, 4 C; UNK is unkempt and MSI1 is Musashi-1; names of the RNAs are library labels; protein concentration not given here; high values mean tight binding
row,Binder,binding signal [enrichment R]
1,B1,0.687
2,B2,0.792
3,B3,1.38
4,B4,0.672
5,B5,0.855
6,B6,0.937
7,B7,1.53
8,B8,0.526
9,B9,0.942
10,B10,1.14
11,B11,1.78
12,B12,0.578
13,B13,1.78
14,B14,0.655
